This is one part of the list. At the low end of the ranking, values are background and their order means little. Measured with an extract: partners may take part in the binding.

This note sets out measurements from paper PMC10726135.

The test concerns the target T1, HNF4alpha2 (COS-7 nuclear extract) (UniProt P41235).
T1 sequence: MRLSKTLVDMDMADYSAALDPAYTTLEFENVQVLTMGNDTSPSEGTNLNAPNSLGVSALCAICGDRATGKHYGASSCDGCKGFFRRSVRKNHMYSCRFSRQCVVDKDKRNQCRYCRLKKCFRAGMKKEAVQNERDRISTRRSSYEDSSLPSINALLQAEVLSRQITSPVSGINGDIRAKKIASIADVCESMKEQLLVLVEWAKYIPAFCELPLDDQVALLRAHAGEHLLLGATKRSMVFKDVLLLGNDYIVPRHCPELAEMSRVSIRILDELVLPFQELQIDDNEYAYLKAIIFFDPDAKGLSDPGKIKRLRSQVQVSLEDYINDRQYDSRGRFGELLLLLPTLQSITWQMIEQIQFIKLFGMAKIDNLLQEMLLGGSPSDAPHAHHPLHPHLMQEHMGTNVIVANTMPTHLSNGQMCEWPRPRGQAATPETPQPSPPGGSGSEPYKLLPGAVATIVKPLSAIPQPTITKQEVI
Kind of test: protein-binding microarray. The conditions noted are these: COS-7 nuclear extract on double-stranded Agilent 4x180k PBM; binding buffer, salt, pH and temperature not given; high values mean tight binding; double strand, one strand shown; sequences stand for … in …GCCTAGGGAGATTAGAGTATCGGTCGA
For the sequence TCTGACCTTTGTCTCCAGGCAAACTACAGT, the binding signal (log2 normalized intensity) was determined as 3.31.

On to CTCTGGGACCGCAGGGGGCTCCCGGACCCT, for which the binding signal (log2 normalized intensity) is 0.781.

Take TTATGTACTTAGTGTTTTATGTGTATTTAC: the binding signal (log2 normalized intensity) came out at 1.94.

As to ATGAAAGAGACTAGTATGTAAATAAGAGCT, the binding signal (log2 normalized intensity) is -1.23.

CTAAGGGGGAAAGTCCACGTGAGAGGGTCG: the binding signal (log2 normalized intensity) worked out at 2.39.

For TGGCTGAGAGGGATAAAAGGGGAAAAGGTC, the binding signal (log2 normalized intensity) turned out to be 2.07.

Take CACTCTGGTGCCCTCTGAGTGTTTGACCTT: the binding signal (log2 normalized intensity) was found to be 5.15.

As for GGAAGGTGGGGGAGGAGACAGCTACGGAAT, the binding signal (log2 normalized intensity) is -1.2.

Consider CTCCCGGGCGCTGTCCGCCGCCTCGTGGTG, for which the binding signal (log2 normalized intensity) is -1.17.

For the sequence AAGACCTCGGCCTCATGGGCGATCCCGAAA, the binding signal (log2 normalized intensity) is -1.05.

Consider CCTCTGCAGCCGCCCTTTTGCCTCCGCTCC, for which the binding signal (log2 normalized intensity) is 1.04.

For the sequence CACTAGGAGGAGGTCAAAGTGCAACTACAA, the binding signal (log2 normalized intensity) turned out to be 5.7.

For ATAAAATAGCTGCCTGTGTGTTCTGCTATT, the binding signal (log2 normalized intensity) was determined as 1.12.

As to TACAGTGCCATTTATCAGTGATTTCTCTTC, the binding signal (log2 normalized intensity) stood at 0.503.

For the sequence ACAGACTTCACACTAGAAGACTCATCTCAG, the binding signal (log2 normalized intensity) is -1.12.

Take ACCCTGTTGGTTTCTGGGATTTGTACAAGT: the binding signal (log2 normalized intensity) amounted to 1.91.

Turning to ACCTGATGTTTGGACAGTGTGACTCATCAA, the binding signal (log2 normalized intensity) was 1.29.

Consider AGACCCTTATCAGTAGTTCTCCTTTCTGCC, for which the binding signal (log2 normalized intensity) was 1.39.

With TTAAAGGCAAAGTCCAGAACCTGGAACCTA, the binding signal (log2 normalized intensity) was 2.15.

As for ACCCATTATGGCCACTGTGTGTGTGTGTGT, the binding signal (log2 normalized intensity) came out at 3.08.

For CCTGTCTCATCCTGTGACCAAGAATGCCTA, the binding signal (log2 normalized intensity) is -0.866.

For TCCTAAGGCCTTCAACTGATAAGAAGGGGC, the binding signal (log2 normalized intensity) is -1.04.

Turning to CACCGTAAATCACATTGTTAGCAGAAACCA, the binding signal (log2 normalized intensity) was -0.708.

Take GTGAGAAACATCCTGCCTAACCACCTGACC: the binding signal (log2 normalized intensity) was -1.11.

Regarding AAAGGGGCTAGGGCAAAGATCAAACATACA, the binding signal (log2 normalized intensity) was 1.04.

In the case of ATAAGCCACGAGCCTGCCTGCTCCTCCTCG, the binding signal (log2 normalized intensity) was -1.21.

With TCTTATCTCACTGGATGTGTACCTCATCTT, the binding signal (log2 normalized intensity) turned out to be 1.24.

Take AGAACATTGCAGTGGCTCAGAGGTTATCTC: the binding signal (log2 normalized intensity) came out at 0.737.

For the sequence GACAAGGCTCTGGTGGGGAATGCTAGGACT, the binding signal (log2 normalized intensity) is -1.04.

With AGCAAAGTTCAGAGAGGAATCGGCAGTTTG, the binding signal (log2 normalized intensity) was -1.07.

As to TAGACCTAGATAAGGGAGATGAAAGGGGCC, the binding signal (log2 normalized intensity) is -1.22.

Take TGCTGGTTTACAACATTCCTTTGTATTTTT: the binding signal (log2 normalized intensity) worked out at 1.51.

In the case of GTGTGTGGTGTGTGTGTGTGTGTTTTGTGC, the binding signal (log2 normalized intensity) is 3.05.

On to GGGGCATCCCTCGTAGGCAGGGCCAGATAA, for which the binding signal (log2 normalized intensity) was -1.18.

As to CTGATTCTGATTAGGTGGATTCGCCCAGCA, the binding signal (log2 normalized intensity) was -1.14.

On to AGTGGCTCCTAGAATTATCCCACCCCCAAT, for which the binding signal (log2 normalized intensity) was determined as 4.42.

As for AAAAACAGGTTCTGCAACACTTTCTAAGGA, the binding signal (log2 normalized intensity) is -1.1.

For the sequence TGGAATGTCAAGATTGAGACATTCATGGCT, the binding signal (log2 normalized intensity) is -0.938.

With CATTCAACTGACACTTGTTTGAATTGTGAT, the binding signal (log2 normalized intensity) came to 1.87.

As for AAAGGTCATCGCACCGGCAGGGGAGAACTT, the binding signal (log2 normalized intensity) was found to be 0.284.

Turning to TTGCTCAACCTGGACCTCATTAATAGGGCA, the binding signal (log2 normalized intensity) was determined as 0.548.

TTTCTGGGACCAAGGGTCAGTTCATTAAAA: the binding signal (log2 normalized intensity) was 2.22.

Consider AGTGAGGGACAAGGCTGTCCCCCATCTCAT, for which the binding signal (log2 normalized intensity) worked out at 1.44.

For the sequence GACTCAGAAAAATATGTGGACTTCAAAGGT, the binding signal (log2 normalized intensity) is 1.29.

On to AAGCTTGCTGATTACATAGGAGGCTGCCTC, for which the binding signal (log2 normalized intensity) was -1.12.

Take CCTCCATGGCCTGGGGCCCTACCTGCACTT: the binding signal (log2 normalized intensity) is -1.04.

For GCATAGGAAGTGGGGAAGAAGTGTTCCCCT, the binding signal (log2 normalized intensity) worked out at 0.808.

Regarding CCGAATGTCCAGACTGTGCATACCAAGAAC, the binding signal (log2 normalized intensity) was -1.2.

For ACATTCCCTTCTTAGGGCAACATTCTTATC, the binding signal (log2 normalized intensity) was found to be 1.29.

Take TCCTTATCTGTAGAAGGCAAAGCTTGGCCA: the binding signal (log2 normalized intensity) is -0.441.

As to ATTTGGAAAACATCATTCCGTGACTGAGCT, the binding signal (log2 normalized intensity) was -1.22.

As for CGATAAGGAGGAAGGACACTTAGAGATAAG, the binding signal (log2 normalized intensity) was -1.21.

With CTGGCCTCTGTGAAGTGGAGATAATAGGAG, the binding signal (log2 normalized intensity) was -0.433.

Regarding AAAAAAAGAACACAGTGTAGAAGGCAAGGG, the binding signal (log2 normalized intensity) was -1.03.

As to TCATGAGTAGAGAGCAATCATGGGCCCACA, the binding signal (log2 normalized intensity) is -1.15.

Consider AGAATGTGGCCATTTTACTTGTCAAGGATC, for which the binding signal (log2 normalized intensity) was determined as 0.509.

For the sequence TACAGGCGTGAGCCACCGCGCCCCGCCCCC, the binding signal (log2 normalized intensity) came to 5.74.

As for CCTTTGGGAGCAGTGGGCATATCTTTTTAT, the binding signal (log2 normalized intensity) amounted to 1.56.

For ACTGAAAGGGAACCCTAATCCACATGCTAT, the binding signal (log2 normalized intensity) was -1.11.

For ATCCCCGCCCCCAACGGGCCACGCCCTGCA, the binding signal (log2 normalized intensity) was 4.37.

With GCCTGGACCTTGGAATGTCAAGATTGAGAC, the binding signal (log2 normalized intensity) worked out at 1.67.

Take CACTCATCCCTTGCACTGCTCAGGGTGGGG: the binding signal (log2 normalized intensity) is -0.0659.

Regarding TAACCATGGGGGCTCAGGGCCTCTCTTCTT, the binding signal (log2 normalized intensity) was -1.13.

Turning to CTTCCATATAACCCTTGAACCTTCTTCTTG, the binding signal (log2 normalized intensity) was found to be 3.99.

As to TAGCTCATTAAGCTTAGCGTTATCAAACCA, the binding signal (log2 normalized intensity) was -0.905.

As for CCTCTCCTCCATGGCCTGGGGCCCTACCTG, the binding signal (log2 normalized intensity) was -1.13.

As to CAAGTATTTTCAGCCACCTTTATCTGATCA, the binding signal (log2 normalized intensity) was 1.49.

On to AGAAAGCAGCCATAGACGATGTGTAAACAA, for which the binding signal (log2 normalized intensity) was -1.01.

CGTTCCCCGAGCGAGCTCCGTGCGGGAGGC: the binding signal (log2 normalized intensity) was -0.646.

GCAAAGGTCACTCTTGCTATGCCTTAGCAA: the binding signal (log2 normalized intensity) was -1.1.

In the case of GTGCAAAGGTTAAAATGCCCTCACAGGTTC, the binding signal (log2 normalized intensity) amounted to 1.61.

Consider ATATAATCATTCATGGGCCAAAGTTTGTTT, for which the binding signal (log2 normalized intensity) amounted to 1.7.
